The list shows a part of the results. Values were computed here from the reads of four pooled replicates and scatter widely.

This test concerns the target T1, Pho4 (S. cerevisiae) (UniProt P07270).
T1 sequence: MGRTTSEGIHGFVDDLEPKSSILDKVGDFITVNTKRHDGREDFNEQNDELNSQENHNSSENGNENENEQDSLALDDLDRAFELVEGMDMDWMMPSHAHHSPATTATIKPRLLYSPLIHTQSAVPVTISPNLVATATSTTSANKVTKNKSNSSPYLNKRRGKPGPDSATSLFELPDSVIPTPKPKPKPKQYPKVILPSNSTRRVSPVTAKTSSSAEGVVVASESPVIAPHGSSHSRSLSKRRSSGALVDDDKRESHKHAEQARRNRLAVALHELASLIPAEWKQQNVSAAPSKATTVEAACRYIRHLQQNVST
In words: relative binding free energy (BET-seq); higher = weaker binding. The note with it: reference: library average.
In the case of AGTAACACGTGGATTG, the “relative binding free energy” value is -0.02 kcal/mol. Then GGGAGCACGTGTACGG, with -0.08 kcal/mol.

With GAAGTCACGTGAGGTT, the “relative binding free energy” value worked out at 0.19 kcal/mol. For TTTGTCACGTGCTGAC, the “relative binding free energy” value was 0.16 kcal/mol. Then TGGCGCACGTGTAAGT, with -0.08 kcal/mol; and GATTACACGTGTTGTC, with 0.22 kcal/mol.

For AAACGCACGTGAGTGG, the “relative binding free energy” value is 0 kcal/mol. Then GGTGGCACGTGACGAT, with 0.01 kcal/mol; and CTCTTCACGTGGGTGG, with 0.08 kcal/mol. Then GAGGTCACGTGCTTTT, with 0.06 kcal/mol; and CTGGGCACGTGAGGCA, with 0.03 kcal/mol.

As for TGATGCACGTGCTGTT, the “relative binding free energy” value is -0.11 kcal/mol. Then TTGTGCACGTGATCTG, with 0.03 kcal/mol; and TTCAACACGTGATTTG, with 0.21 kcal/mol.

As to AAGGGCACGTGAATGT, the “relative binding free energy” value came out at 0.31 kcal/mol.

Turning to GTATACACGTGATATT, the “relative binding free energy” value was 0.19 kcal/mol.

Turning to CGTGACACGTGGGGTC, the “relative binding free energy” value was -0.14 kcal/mol. Then TGTCGCACGTGGGTAA, with -0.06 kcal/mol; and ATGGTCACGTGCATAA, with 0.19 kcal/mol.

For TCAGACACGTGTTTTA, the “relative binding free energy” value stood at 0.24 kcal/mol. Then TTATACACGTGAGGTC, with 0.41 kcal/mol. Then TGTTTCACGTGGATCG, with 0.4 kcal/mol; and ATTAACACGTGTTGCA, with 0.03 kcal/mol; and GGGGGCACGTGTAAAC, with 0.07 kcal/mol. For GCTGGCACGTGGGCAG, the “relative binding free energy” value is -0.25 kcal/mol.

Consider ACGTTCACGTGTGATG, for which the “relative binding free energy” value was found to be 0.24 kcal/mol. Then TGAACCACGTGCGGGG, with 0.06 kcal/mol. TCCGTCACGTGGGTGT: the “relative binding free energy” value is -0.07 kcal/mol. Then TTTCGCACGTGGGACG, with -0.14 kcal/mol. Then TGGGACACGTGAGATA, with 0.22 kcal/mol; and TTATACACGTGGATGG, with 0.09 kcal/mol; and TTATCCACGTGGGAGG, with -0.04 kcal/mol. For ATGTGCACGTGATGGA, the “relative binding free energy” value worked out at 0.15 kcal/mol.

With GATTTCACGTGGGTAG, the “relative binding free energy” value came to 0.13 kcal/mol.

In the case of GTATTCACGTGTATCG, the “relative binding free energy” value was 0.11 kcal/mol.

As to TTCTTCACGTGATTTC, the “relative binding free energy” value worked out at 0.44 kcal/mol. Take GTCTGCACGTGAGGGG: the “relative binding free energy” value is 0.29 kcal/mol. Then ATCGTCACGTGAAGGT, with 0.26 kcal/mol; and GAGAGCACGTGTGGCG, with -0.06 kcal/mol; and AGTATCACGTGGCGGA, with 0.13 kcal/mol. Then AGACTCACGTGGGGGT, with 0.09 kcal/mol; and GGTGACACGTGGAGCG, with 0 kcal/mol. Turning to ATGGACACGTGGTTCA, the “relative binding free energy” value stood at 0.14 kcal/mol. TCTGGCACGTGTCGTA: the “relative binding free energy” value is -0.11 kcal/mol.

Regarding GTATTCACGTGTGCTA, the “relative binding free energy” value turned out to be 0.36 kcal/mol. Then TGCTTCACGTGTGAAG, with 0.24 kcal/mol; and GAAGTCACGTGGGGCT, with 0.13 kcal/mol. Regarding GTGAGCACGTGTTGAG, the “relative binding free energy” value was -0.05 kcal/mol. Then GTATGCACGTGTTGTG, with 0.07 kcal/mol. Then TGTTGCACGTGCCTGA, with 0.06 kcal/mol; and GGGGCCACGTGAGGGA, with 0.06 kcal/mol; and AAGTTCACGTGCAGGG, with 0.28 kcal/mol. GAGAGCACGTGAGAGG: the “relative binding free energy” value came to 0.24 kcal/mol. Take GATGGCACGTGTGGTT: the “relative binding free energy” value was 0.03 kcal/mol.

In the case of TAGTTCACGTGTGCTT, the “relative binding free energy” value is 0.3 kcal/mol. Then TGGGTCACGTGGGTTA, with 0.08 kcal/mol. Then AACGGCACGTGGTGGT, with -0.16 kcal/mol; and AATCTCACGTGTTAGG, with 0.28 kcal/mol; and CGGGCCACGTGTTTGG, with -0.06 kcal/mol. As for TCTTACACGTGTGAGG, the “relative binding free energy” value is 0.2 kcal/mol. Take ATTTTCACGTGAAATG: the “relative binding free energy” value came to 0.27 kcal/mol. Then AGGGTCACGTGAAAAT, with 0.39 kcal/mol; and TTTACCACGTGGAGGG, with -0.1 kcal/mol; and CTGGTCACGTGTGGAT, with 0.09 kcal/mol.

On to TAGATCACGTGGTTGG, for which the “relative binding free energy” value came out at 0.12 kcal/mol. In the case of GTCGACACGTGGCGTG, the “relative binding free energy” value is 0.05 kcal/mol. Then AATTGCACGTGATCGG, with 0.04 kcal/mol.

Consider ATTTGCACGTGTCTGC, for which the “relative binding free energy” value worked out at 0.06 kcal/mol. For the sequence TTGAACACGTGTGCTG, the “relative binding free energy” value turned out to be 0.06 kcal/mol.

Regarding GAGGACACGTGCTGTG, the “relative binding free energy” value worked out at 0.04 kcal/mol. On to GCGATCACGTGTTTTG, for which the “relative binding free energy” value turned out to be 0.15 kcal/mol. As for TATAGCACGTGTGTCT, the “relative binding free energy” value was -0.05 kcal/mol. Regarding TTTCTCACGTGTTGTG, the “relative binding free energy” value turned out to be 0.14 kcal/mol. Then AGAATCACGTGTCTTG, with 0.16 kcal/mol; and TTAGGCACGTGGGGCT, with -0.27 kcal/mol; and CATTTCACGTGGGGAT, with 0.18 kcal/mol.

Take GGTGTCACGTGGGCGA: the “relative binding free energy” value was -0.08 kcal/mol.

For the sequence CATTTCACGTGGTATT, the “relative binding free energy” value turned out to be 0.04 kcal/mol.

Turning to CTGTGCACGTGACGGT, the “relative binding free energy” value is -0.03 kcal/mol. Turning to TTAGGCACGTGCGGGA, the “relative binding free energy” value is -0.09 kcal/mol. Then ATGTTCACGTGGATTG, with 0.33 kcal/mol; and GGATGCACGTGCTTTT, with 0.06 kcal/mol; and TTTGGCACGTGGAGAT, with -0.07 kcal/mol. For ATCGGCACGTGGAGTG, the “relative binding free energy” value is -0.12 kcal/mol. On to TCAAGCACGTGATTTT, for which the “relative binding free energy” value came to 0.16 kcal/mol. Consider TAATTCACGTGGGTTT, for which the “relative binding free energy” value worked out at 0.25 kcal/mol. Then TGGTACACGTGCGCTG, with -0.03 kcal/mol; and GGTCACACGTGGGGTT, with 0.06 kcal/mol; and TAAGGCACGTGGAATT, with 0.01 kcal/mol. Then ATCTACACGTGTTTGG, with -0.01 kcal/mol; and TGTCGCACGTGGTGAT, with -0.07 kcal/mol; and GTTGGCACGTGGACGG, with 0.02 kcal/mol. Then GGTTACACGTGATGAA, with 0.37 kcal/mol; and GAAGGCACGTGATATG, with 0.02 kcal/mol; and AACTTCACGTGGAGGG, with 0.15 kcal/mol. With TGGTGCACGTGCGTCT, the “relative binding free energy” value is -0.11 kcal/mol. Take GACCGCACGTGTGGGG: the “relative binding free energy” value amounted to 0.13 kcal/mol.

Turning to AAGGTCACGTGAATTT, the “relative binding free energy” value was 0.33 kcal/mol.

Turning to TCGGTCACGTGGTATG, the “relative binding free energy” value was found to be 0.08 kcal/mol. Then TGGCGCACGTGTTGTA, with -0.17 kcal/mol; and AGTGGCACGTGGGTAT, with -0.28 kcal/mol. In the case of TTTTTCACGTGTATTC, the “relative binding free energy” value is 0.34 kcal/mol. Then TCTTGCACGTGTTCGT, with -0.01 kcal/mol; and GGGGTCACGTGTCAAG, with 0.11 kcal/mol. Take ACGGGCACGTGGTGGG: the “relative binding free energy” value was -0.2 kcal/mol. Then GGGGGCACGTGGTGCA, with -0.19 kcal/mol; and ATGTGCACGTGGAGGC, with -0.08 kcal/mol.

Consider CTACTCACGTGTGGTG, for which the “relative binding free energy” value amounted to 0.2 kcal/mol. As to ATTTGCACGTGTGTGT, the “relative binding free energy” value was 0.06 kcal/mol. Then ATTTTCACGTGGTAGG, with 0.22 kcal/mol.

Consider TAGTTCACGTGAGCAT, for which the “relative binding free energy” value was determined as 0.39 kcal/mol. Then TTCTGCACGTGTCATG, with 0.08 kcal/mol. Then GGGGCCACGTGCGGTG, with -0.1 kcal/mol. Then ATATGCACGTGTGAGG, with -0.02 kcal/mol; and CGTAGCACGTGAGGAG, with 0.3 kcal/mol.

The values are drawn from the BET-seq Pho4 binding data (Le et al. 2018).
